The supplement of paper PMC10126150
Values marked as one replicate rest on one cluster of the flow cell; about a third of the high ones do not repeat.
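Further: ATP exposure 15 min at 22 °C before imaging.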

What follows are sequences tested on ATP (assay: switch fluorescence ratio, 500 uM ATP over buffer (Cy3 cluster intensity, sum of 5 cycles each) (fold (ratio)); higher = stronger signal-on switching upon ATP binding; sequences stand for … in TCGTCGGCAGCGTCAGATGTGTATAAGAGACAGTTTTTTTTTTTTTTTTTTTTTTTTT…TC). Details: aptamer strand: ATP DNA aptamer (quencher-CACCTGGGGGAGTATTGCGGAGGAAGG + anchor), 100 nM annealed; ATP concentration: 500 uM; one replicate.
Method in brief: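 Between each of five buffer/ATP cycles, the flow-cell was stripped with NaOH and re-annealed. Each cycle imaged Cy3-labelled switching-strand clusters, annealed to 100 nM quencher-labelled ATP aptamer on a modified Illumina MiSeq flow-cell, first in selection buffer and then after 15 min with 500 uM ATP at 22 °C. The fluorescence ratio is summed target-cycle over summed buffer-cycle Cy3 intensity per cluster, averaged per switch-domain sequence, with clusters outside 100-1000 RFU excluded.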
CCCCTCATTT was tested, and the switch fluorescence ratio was 1.03. With CCCCTGATTG the switch fluorescence ratio was 1.08. In the case of CCCCTGGGGG, the switch fluorescence ratio was 1.01. In the case of CCCCTGGTTG, the switch fluorescence ratio was 3.38. CCCCTGTCGA was tested, and the switch fluorescence ratio was 1.07. In the case of CCCCTTACAC, the switch fluorescence ratio was 1.08. In the case of CCCCTTTTGC, the switch fluorescence ratio was 1.03. Sequence CCCGAGAATT has a switch fluorescence ratio of 1.01. Sequence CCCGGACCTT has a switch fluorescence ratio of 1.24. CCCGGCGGGG gave a switch fluorescence ratio of 1.06. CCCGGCTGTG gave a switch fluorescence ratio of 1.07. CCCGGGAGTT was tested, and the switch fluorescence ratio was 0.972. Work on CCCGGGCTTT yielded a switch fluorescence ratio of 1.02. CCCGGTACGA gave a switch fluorescence ratio of 1.23. Work on CCCGGTCTAG yielded a switch fluorescence ratio of 1.06. Work on CCCGTCTTGT yielded a switch fluorescence ratio of 1.01. CCCGTGCAA was tested, and the switch fluorescence ratio was 1.15. In the case of CCCGTTACAG, the switch fluorescence ratio was 1.1. Work on CCCGTTCTCT yielded a switch fluorescence ratio of 1.01. Work on CCCTAACGGC yielded a switch fluorescence ratio of 1.07. Work on CCCTAGGCAC yielded a switch fluorescence ratio of 1.13. CCCTATCCG gave a switch fluorescence ratio of 1.03. CCCTCGTCGT gave a switch fluorescence ratio of 1.03. In the case of CCCTGGGATC, the switch fluorescence ratio was 1.06. CCCTGGTAGT showed a switch fluorescence ratio of 1.14. CCCTGTACGA showed a switch fluorescence ratio of 1.37. CCCTGTATAA gave a switch fluorescence ratio of 1.08. In the case of CCCTGTTTTC, the switch fluorescence ratio was 1.02. For CCCTTCAGGA, the switch fluorescence ratio was 1.02. With CCCTTCGTTT the switch fluorescence ratio was 1.08. For CCCTTCTTG, the switch fluorescence ratio was 1.05. CCCTTGAAAG was tested, and the switch fluorescence ratio was 1.01. Sequence CCCTTGTTAT has a switch fluorescence ratio of 0.993. For CCCTTTGCGG, the switch fluorescence ratio was 1.07. CCCTTTTACC showed a switch fluorescence ratio of 1.03. For CCGAACATAG, the switch fluorescence ratio was 2.64. With CCGAACTGTG the switch fluorescence ratio was 1.07. In the case of CCGAAGAAAG, the switch fluorescence ratio was 2.58. Work on CCGAAGGCTG yielded a switch fluorescence ratio of 1.19. Sequence CCGAAGTTAA has a switch fluorescence ratio of 2.77. In the case of CCGAATCTTA, the switch fluorescence ratio was 1.07. Work on CCGACAGGAT yielded a switch fluorescence ratio of 4.16. CCGACAGTCT gave a switch fluorescence ratio of 1.11. For CCGACATAGC, the switch fluorescence ratio was 2.42. CCGACATGAA was tested, and the switch fluorescence ratio was 4.83. In the case of CCGACGTGAG, the switch fluorescence ratio was 1.54. CCGACTCTAA gave a switch fluorescence ratio of 5.1. CCGAGAACAA gave a switch fluorescence ratio of 5.18. With CCGAGATCAT the switch fluorescence ratio was 1.11. For CCGAGCTCTA, the switch fluorescence ratio was 2.2. In the case of CCGAGTTGGG, the switch fluorescence ratio was 1.06. With CCGATAGGT the switch fluorescence ratio was 1.02. CCGATGCATG showed a switch fluorescence ratio of 2.77. For CCGATGGGCG, the switch fluorescence ratio was 1.1. CCGATGGTGA showed a switch fluorescence ratio of 1.68. In the case of CCGATTTGCC, the switch fluorescence ratio was 1.22. For CCGATTTGGG, the switch fluorescence ratio was 0.968. With CCGCAGTCAG the switch fluorescence ratio was 6.58. In the case of CCGCAGTTGG, the switch fluorescence ratio was 4.51. Work on CCGCATGCGC yielded a switch fluorescence ratio of 4.18. CCGCCAAATA was tested, and the switch fluorescence ratio was 3.29. Sequence CCGCCAGGAA has a switch fluorescence ratio of 0.989. Work on CCGCCTCGCG yielded a switch fluorescence ratio of 1.02. Sequence CCGCCTGGTC has a switch fluorescence ratio of 2.09. CCGCCTTCTT gave a switch fluorescence ratio of 1.11. In the case of CCGCGCATCA, the switch fluorescence ratio was 3.92. For CCGCGCCGCA, the switch fluorescence ratio was 1.58. In the case of CCGCGCTAGT, the switch fluorescence ratio was 1.64. For CCGCGGCTCG, the switch fluorescence ratio was 1.94. CCGCGGGTC showed a switch fluorescence ratio of 2.59. With CCGCGTTATA the switch fluorescence ratio was 2.07. CCGCTGGCAG showed a switch fluorescence ratio of 2.08. For CCGCTGTATT, the switch fluorescence ratio was 2.27. For CCGCTTTTAA, the switch fluorescence ratio was 2.84. CCGGAAATAG gave a switch fluorescence ratio of 1.13. In the case of CCGGAAATCC, the switch fluorescence ratio was 1.05.
